In publication PMC12136788:
The other results are listed elsewhere or left out.

T1: UNK ZnF1-6 (called full-length) (human, UniProt Q9C0B0 30-357)
T1 sequence: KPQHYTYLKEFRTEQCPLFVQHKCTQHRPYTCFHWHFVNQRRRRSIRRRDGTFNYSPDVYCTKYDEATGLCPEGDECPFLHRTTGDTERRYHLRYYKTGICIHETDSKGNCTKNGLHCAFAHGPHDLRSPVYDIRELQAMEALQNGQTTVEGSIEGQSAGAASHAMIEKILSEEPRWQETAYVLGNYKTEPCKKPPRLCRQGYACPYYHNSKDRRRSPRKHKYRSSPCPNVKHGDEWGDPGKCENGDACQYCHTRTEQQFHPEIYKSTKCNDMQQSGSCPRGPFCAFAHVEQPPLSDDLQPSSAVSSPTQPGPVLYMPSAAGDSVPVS

B1: chr2:159432892:159433005:-|CDS|ENSG00000123636|unk|total|mutant (ssRNA)
RNA: GGGAGUUCUACAGUCCGACGAUCACACCUGUAAUGCCCUCUGCCUCUCCCAUCCUGCACCGUCAAGGGAAGGAAAAAGCAGUCCGCAAUAAUGUAAACCCAGUAAAAACACAGCAUCACUCCCAUCCUGCAAAAUCUUCCGUGCAACAGAGGAUUGAGCAUCA
B2: chr22:20586770:20586871:+|3pUTR|ENSG00000099917|unk|total|mutant (ssRNA)
RNA: GGGAGUUCUACAGUCCGACGAUCACACGCCUCCUGUCAGACACUUCCCGGUGUUGGCUUCCUCCGAGAGCCUGGGGUCCGGUCCGCUUUCCUGCUUUUAUCUUCUGCCUUGGGGACCUGCCAAACGAAAUCCCACACCUGUACCAACAGAGGAUUGAGCAUCA
B3: ENSG00000070961:be:win_1051|CDS|ENSG00000070961|bound_else_gene|NA|bound_elsewhere_windowed (ssRNA)
RNA: GGGAGUUCUACAGUCCGACGAUCAAAGCAAAUUUGCCAAAAAAGGAAAAAUCUGUUUUACAAGGGAAACUUACAAAACUGGCUGUUCAGAUUGGCAAAGCAGGUCUGUUGAUGUCUGCCAUCACAGUUAUCAUUCUAGUAUUACAACAGAGGAUUGAGCAUCA
B4: chr5:177457090:177457109:-|3pUTR|ENSG00000113758|msi1_unk|total|mutant (ssRNA)
RNA: GGGAGUUCUACAGUCCGACGAUCGGCCGUUGAGACGCUGUUGCAAAUUCCACCCCUCCUUCCCUGGUCCAGAUUGCCGCUCUCCGUCCUCCCUGCUCAGCUGGCCGGGUUGGAGGCCUCACCCUGCUUGGGGCCUGGCGUGGGCAACAGAGGAUUGAGCAUCA
B5: ENSG00000124766:be:win_3601|3pUTR|ENSG00000124766|bound_else_gene|NA|bound_elsewhere_windowed (ssRNA)
RNA: GGGAGUUCUACAGUCCGACGAUCUGUACUGCGUUUUUCAUUCUUGUAUUUGACUAUUUAAUCCUUUCUACUUGUCGCUAAAUAUAAUUGUUUUAGUCUUAUGGCAUGAUGAUAGCAUAUGUGUUCAGGUUUAUAGCUGUUGUGCAACAGAGGAUUGAGCAUCA
B6: chr5:177595998:177596040:+|3pUTR|ENSG00000184840|msi1_unk|total|mutant (ssRNA)
RNA: GGGAGUUCUACAGUCCGACGAUCCCUGAGCUGCUUCACAUGGUUGUCCAUUCUGGGGCUUAAAGAACUGGGACCAGACCAAGCCGAGGCCUUGGUGCUGGUUGGGGUGGGGCCUGCAGAGUCUCCGUUACUGAUUUCAUUUUCCAACAGAGGAUUGAGCAUCA
B7: chr7:82949737:82949846:-|CDS|ENSG00000186472|unk|FALSE|unique (ssRNA)
RNA: GGGAGUUCUACAGUCCGACGAUCAAGUCCUCAAUAUCUGAGUGCCACAUCUCCACCCAAAGACAAGAAACGCCCAACACCUUUAGAGAUUGGUUAUUCAUCUCACCUCCGGGCAGAUUCCACAGUACAGCUGGCUCCUUCCCCCAACAGAGGAUUGAGCAUCA
B8: chr5:56881662:56881777:+|CDS|ENSG00000095015|unk|total|mutant (ssRNA)
RNA: GGGAGUUCUACAGUCCGACGAUCGAUCUACUUGAGUUCUGCAAGAAUGGUUACUACAGUACCCCAUGUGUUUUCAAAACUGUCCGAAAUGCUGAGUGUUUCCAGUUCCACUCACUUCACCAGGAUGCGUCGCCGUUUGAUGGCCAACAGAGGAUUGAGCAUCA
B9: chr9:133763799:133763900:-|3pUTR|ENSG00000160293|msi1|total|mutant (ssRNA)
RNA: GGGAGUUCUACAGUCCGACGAUCCGAACCGUUUCACUGUCAGCCUGCCCUCGGCGACCCAUCACUGGGUAUGCUAUUGUACACCGAGGAAACCUGGGCCCGCCCCACCCAGAGCGCAGAGGAGGGGGCACCGACAGCGCUGCGCAACAGAGGAUUGAGCAUCA
B10: chr9:137457406:137457901:-|CDS|ENSG00000165802|control|control|control (ssRNA)
RNA: GGGAGUUCUACAGUCCGACGAUCCGCCUGUCCCUCGUCUCCAACGGCUGCUACGAGGGCAGCCUCUCAGAGGAGCCCAGCAUUAGGAAGCCCGCAGGCGAGGGCCCUCAGCCUCGAGUGUACACCAUCUCUGGGGAGCCUGCCCAACAGAGGAUUGAGCAUCA
B11: chr3:179334110:179334217:+|CDS|ENSG00000121864|unk|FALSE|unique (ssRNA)
RNA: GGGAGUUCUACAGUCCGACGAUCACAUACAAAAAUUUUUCCUCAUGUUUGUGAUGACUGUGGGAAAGGCUUUUCAAGUAUGCUAGAAUAUUGCAAGCAUUUAAAUUCACAUUUAUCUGAAGGGAUUUAUUUAUGUCAAUAUUGCAACAGAGGAUUGAGCAUCA
B12: chr3:113978857:113979010:-|three_prime_utr|ENSG00000163617|control|control|control (ssRNA)
RNA: GGGAGUUCUACAGUCCGACGAUCGCAGAAGAACAUUACUCUUUGUUCCUGCAGAGGAAAUACAUGCUGACGUGGUUCCAGCGUAGUCAGGAAAGUCUGGCUAGAAAGAUGGCCCAGGCUGAUCAAUUUUAUUCCCAAAUACUGCAACAGAGGAUUGAGCAUCA
B13: chr1:153662446:153662560:-|CDS|ENSG00000143621|unk|FALSE|unique (ssRNA)
RNA: GGGAGUUCUACAGUCCGACGAUCAAUCACCUUUUUCUCUUUCCUAGAUCUUGCUUCUGAAAUAUCUACCUGGGAUGGAGUGAUAGUAACACCUUCAGAAAAGGCUUAUGAGAAGCCACCAGAGAAGAAGGAAGGAGAGGAAGACAACAGAGGAUUGAGCAUCA
B14: chr4:67508813:67509105:-|CDS|ENSG00000145241|control|control|control (ssRNA)
RNA: GGGAGUUCUACAGUCCGACGAUCAUGCAUCACAAUAGUAGCCGAAAAUCUACUAAGAAAACAAAUCAGUCAUCUAAGAAUAUUAGGAAAAAAACUAUUCCACUUAAAAGGCAGAAGACAGCAACUAAAGGCAACCAAAGAGUACAACAGAGGAUUGAGCAUCA
B15: chr3:51993521:51994126:-|three_prime_utr|ENSG00000162244|control|control|control (ssRNA)
RNA: GGGAGUUCUACAGUCCGACGAUCCAGCUUCAGUUCCAGCUCAGGCUCCCAAACGUACCCAGGCCCCUACAAAGGCUUCAGAGUAGAUAUCUCUGCCAACAUGAGGACAGAAGGACUGGUGCGACCCCCCACCCCCGCCCCUGGCAACAGAGGAUUGAGCAUCA
B16: chr22:46679111:46679212:+|3pUTR|ENSG00000075240|msi1|total|mutant (ssRNA)
RNA: GGGAGUUCUACAGUCCGACGAUCAGGGCCCGGCAGUGCCCAAGGAUGGGUCCGGGGCCUCGGGGCCAAUGAGCGCCUCUUCCCCGGUGCUGGGAUUCAGUCCCCAAACACAGCGGGAGGGGUCCCUGGGGCAGAUGGGGCUUUCAACAGAGGAUUGAGCAUCA
B17: chr15:34983303:34983404:-|CDS|ENSG00000198146|msi1|total|mutant (ssRNA)
RNA: GGGAGUUCUACAGUCCGACGAUCGCUGAAAACAAUUUAAAAAUGCUAAAGAUUCAACAGUGUGUGGCCGCCAACAAACUACCCCGAAACAGGCCAUAUGUUUGCAAUAUUUGUUUUAAGCACUUUGAAACACCAUCAAAAUUACAACAGAGGAUUGAGCAUCA
B18: chr7:82953248:82953350:-|CDS|ENSG00000186472|unk|FALSE|unique (ssRNA)
RNA: GGGAGUUCUACAGUCCGACGAUCAACAGAUAUACACCCCAAACCAACAGGCCUAUCUUUAACUUCAAGUAUGACCUUAAAUUUAGUGACUUCAGCAGAUUAUAAAUUGCCUUCCCCUACCUCCCCACUUUCCCCACACUCCAACAACAGAGGAUUGAGCAUCA
B19: ENSG00000079246:stop:overlap|stop_codon|ENSG00000079246|stop_codon|NA|stop_codon (ssRNA)
RNA: GGGAGUUCUACAGUCCGACGAUCGAGACACAGCAGCUGUAUUUGAAGAAGGUGGUGAUGUGGACGAUUUAUUGGACAUGAUAUAGGUCGUGGAUGUAUGGGGAAUCUAAGAGAGCUGCCAUCGCUGUGAUGCUGGGAGUUCUACAACAGAGGAUUGAGCAUCA
B20: ENSG00000103429:stop:overlap|stop_codon|ENSG00000103429|stop_codon|NA|stop_codon (ssRNA)
RNA: GGGAGUUCUACAGUCCGACGAUCAACUGAAUGUGAACACAGCAGGUGUGAGAUGUCAUCUUGGAAGACAGGCCUUGCAGAAAUAGGCCUACAUCCAAAAUAUUAUCUUGUGACUCCAUGAACCAUUCAUUAACCCUUUGUAUCCAACAGAGGAUUGAGCAUCA
B21: chr15:41480918:41481019:+|3pUTR|ENSG00000137815|msi1|FALSE|unique (ssRNA)
RNA: GGGAGUUCUACAGUCCGACGAUCCCUCCCCCAGGGCCCCACCCAGUGUGGGCCUGGGCUCUCUUGGGCUUUAUCCAUGUCUUUAGAUUUGUGUUUGCCUUUUGUUUUUUUAACCGCGCAGUUCAUUGGCCACUCUGCACGCAUCAACAGAGGAUUGAGCAUCA
B22: chr8:86558718:86558819:+|3pUTR|ENSG00000085719|unk|total|mutant (ssRNA)
RNA: GGGAGUUCUACAGUCCGACGAUCCUGUUGUUGUUUUUGUUUACUUUCAUAUGAUGAAAAUGCUGUGUUUAAGUGUUUGUCAACCGGAAGAAUGGAAAACUGUUGGGAUGAUGUGGUUUGCAGGUUGCUGUGCCUGAUUCACAGCAACAGAGGAUUGAGCAUCA

The binders below were run against T1, UNK ZnF1-6 (called full-length) (assay: nsRBNS (natural sequence RNA bind-n-seq); RBNS binding buffer (assumed for nsRBNS): 25 mM Tris pH 7.5, 150 mM KCl, 3 mM MgCl2, 0.01% Triton X-100, 500 ug/ml BSA, 20 U/ml SUPERase-In, 4 C; UNK is unkempt and MSI1 is Musashi-1; names of the RNAs are library labels; protein concentration not given here; high values mean tight binding).
Work on B1 yielded a binding signal of 0.715 enrichment R.
For B2, the binding signal was 0.93 enrichment R.
In the case of B3, the binding signal is reported as 0.51 enrichment R.
B4 was tested, and the binding signal was 1.17 enrichment R.
B5 was tested, and the binding signal was 0.795 enrichment R.
In the case of B6, the binding signal is reported as 0.79 enrichment R.
In the case of B7, the binding signal is reported as 0.825 enrichment R.
Binder B8 has a binding signal of 0.498 enrichment R.
B9 was tested, and the binding signal was 0.734 enrichment R.
B10 gave a binding signal of 0.634 enrichment R.
Work on B11 yielded a binding signal of 0.445 enrichment R.
B12 gave a binding signal of 0.575 enrichment R.
B13 showed a binding signal of 0.671 enrichment R.
B14 showed a binding signal of 0.475 enrichment R.
With B15 the binding signal was 1.15 enrichment R.
For B16, the binding signal was 0.704 enrichment R.
For B17, the binding signal was 0.28 enrichment R.
B18 gave a binding signal of 1.36 enrichment R.
In the case of B19, the binding signal is reported as 0.46 enrichment R.
B20 showed a binding signal of 0.863 enrichment R.
Work on B21 yielded a binding signal of 0.998 enrichment R.
Work on B22 yielded a binding signal of 0.466 enrichment R.
